Results from paper PMC4336329 (PLoS ONE, 2015).
Screen size: about 310,000 compounds; about 2,200 (0.71%) showed an effect of 50% or more. The effect is printed as a negative number. This is one part of the list.

target: human ether-à-go-go-related gene (hERG) potassium channel (human, UniProt Q12809); test: primary screen, population patch clamp on CHO cells stably expressing hERG
Sequence (Q12809 whole entry, looked up): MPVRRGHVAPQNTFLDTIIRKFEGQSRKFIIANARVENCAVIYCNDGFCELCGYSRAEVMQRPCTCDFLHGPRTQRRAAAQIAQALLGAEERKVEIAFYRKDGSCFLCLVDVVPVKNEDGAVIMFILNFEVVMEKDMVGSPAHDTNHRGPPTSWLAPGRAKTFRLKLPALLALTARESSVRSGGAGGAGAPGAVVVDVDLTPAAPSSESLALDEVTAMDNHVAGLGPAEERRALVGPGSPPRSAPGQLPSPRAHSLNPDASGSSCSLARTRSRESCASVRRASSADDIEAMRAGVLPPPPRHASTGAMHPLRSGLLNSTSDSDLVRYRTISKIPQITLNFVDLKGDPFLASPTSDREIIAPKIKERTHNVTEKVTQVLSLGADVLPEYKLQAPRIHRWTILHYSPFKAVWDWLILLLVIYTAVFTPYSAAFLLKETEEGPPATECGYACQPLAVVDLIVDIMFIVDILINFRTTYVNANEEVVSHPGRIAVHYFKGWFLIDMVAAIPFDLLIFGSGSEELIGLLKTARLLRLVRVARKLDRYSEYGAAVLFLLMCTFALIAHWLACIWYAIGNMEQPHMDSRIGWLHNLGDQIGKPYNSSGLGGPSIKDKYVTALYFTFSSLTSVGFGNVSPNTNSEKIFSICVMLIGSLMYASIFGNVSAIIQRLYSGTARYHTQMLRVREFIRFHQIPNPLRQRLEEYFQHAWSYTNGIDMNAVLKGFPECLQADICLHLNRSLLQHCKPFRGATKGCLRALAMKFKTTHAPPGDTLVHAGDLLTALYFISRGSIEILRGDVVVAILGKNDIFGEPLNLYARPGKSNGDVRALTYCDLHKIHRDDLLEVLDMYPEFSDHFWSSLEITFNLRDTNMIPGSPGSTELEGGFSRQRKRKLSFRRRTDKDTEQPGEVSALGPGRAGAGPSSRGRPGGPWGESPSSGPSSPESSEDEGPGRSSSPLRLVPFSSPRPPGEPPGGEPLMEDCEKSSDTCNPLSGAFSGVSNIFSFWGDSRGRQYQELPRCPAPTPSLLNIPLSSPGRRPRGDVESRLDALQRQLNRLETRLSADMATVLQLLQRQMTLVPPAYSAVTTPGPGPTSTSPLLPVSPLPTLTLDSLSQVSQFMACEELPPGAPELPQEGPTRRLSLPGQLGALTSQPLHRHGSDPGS

Compared with C/C(=N\Nc1cccc2cccnc12)c1ccccc1O, C/C(=N\Nc1ccccc1C(=O)O)c1ccncc1 is lower in “hERG current change (%, negative = inhibition) at 1uM” value: 9.35% for the first, 9.2% for the second.

First: Cn1ccnc1SCC(=O)NC1(C#N)CCCCC1
Second: CCn1c(CNC(=O)c2ccccc2F)nnc1SCC(=O)NC1CCCCC1C (stereo not shown)
The “hERG current change (%, negative = inhibition) at 1uM” value of the first is lower: 9.36% for the first, 30.8% for the second.

First: CCN(CC)C(=O)Nc1c(C)n(C)n(-c2ccccc2)c1=O
Second: CC(=O)c1cccc(NC(=O)c2cnn(-c3ccccc3)c2C)c1
The “hERG current change (%, negative = inhibition) at 1uM” value of the first is higher: 8.7% for the first, 6.14% for the second.

Going from Cn1c(=O)oc2cc(S(=O)(=O)N3CCC(C(=O)N4CCN(c5ccccc5)CC4)CC3)ccc21 to CCn1cc(C(=O)NCCCN2CCC(C)CC2)c(=O)c2cc(S(=O)(=O)N3CCCC3)ccc21, the “hERG current change (%, negative = inhibition) at 1uM” value rises from -4.39% to 0.579%.

First: COC(=O)C1=C(C)N(c2ccc(OC)c(OC)c2)C(=O)/C1=C\c1cccs1
Second: COc1ccc(C2=NO[C@@H]3C(=O)N(c4ccc5c(c4)OCCO5)C(=O)[C@H]23)cc1OC
The “hERG current change (%, negative = inhibition) at 1uM” value of the first is higher: 12.1% for the first, 5.54% for the second.

First: Cc1c(-c2nc(N)nc(Nc3ccccc3)n2)oc2ccccc12
Second: Cc1c(-c2cccc(Cl)c2)nc2ccccc2c1C(=O)OC/C(O)=C(\C#N)c1nc2ccccc2[nH]1
The “hERG current change (%, negative = inhibition) at 1uM” value of the first is higher: 16.8% for the first, 2.62% for the second.

Going from CCN1CCN(Cc2ccc(NC(=O)c3ccc(C)c(NC(=O)c4nccn4C)c3)cc2C(F)(F)F)CC1 to CC(C)Cn1c(N2CCN(CC(=O)Nc3ccc(Cl)cc3)CC2)nc2ccccc21, the “hERG current change (%, negative = inhibition) at 1uM” value falls from 9.97% to -30%.

Compared with O=C(Nc1nc(-c2ccccc2)ns1)c1cccs1, COc1ccc(-c2csc(N(CC3CCCO3)C(=O)c3cccs3)n2)cc1 (stereo not shown) is lower in “hERG current change (%, negative = inhibition) at 1uM” value: 4.25% for the first, -7.28% for the second.

Compared with O=C(CCC(=O)n1ncc2ccccc21)NCc1ccccc1Cl, CCC(=O)/C(=C(/O)c1ccccc1)c1nc2ccccc2[nH]1 is lower in “hERG current change (%, negative = inhibition) at 1uM” value: 17.8% for the first, 16.6% for the second.

Going from Cc1cccc(-n2cc(-c3ccc([N+](=O)[O-])cc3)[nH]c2=S)c1 to Cc1ccc2nc(-c3ccc(NC(=O)CSc4nccc(=O)[nH]4)cc3)sc2c1, the “hERG current change (%, negative = inhibition) at 1uM” value falls from 12.7% to 10.6%.

Going from O=C(COC(=O)c1ccccc1SCC(=O)N1CCCC1)Nc1ccc(OC(F)F)cc1 to O=C(CCNC(=O)c1ccc(Cl)cc1)Nc1cccc(S(=O)(=O)N2CCCCC2)c1, the “hERG current change (%, negative = inhibition) at 1uM” value rises from -7.26% to -6.25%.

First: COc1ccc(C(=O)CCc2nc3ccccc3s2)cc1
Second: CCOC(=O)C1=C(CSc2nc(-c3ccccc3)ccc2C#N)OC(N)=C(C#N)C1c1ccc(OC)cc1 (stereo not shown)
The “hERG current change (%, negative = inhibition) at 1uM” value of the first is higher: 15% for the first, 11.7% for the second.

Going from O=c1[nH]c(C2CCN(S(=O)(=O)c3ccc(C(F)(F)F)cc3)CC2)nc2c1nnn2Cc1cccc(F)c1 to COC(=O)c1ccccc1S(=O)(=O)N1CCCC(c2nc3c(nnn3Cc3ccc(C)cc3)c(=O)[nH]2)C1 (stereo not shown), the “hERG current change (%, negative = inhibition) at 1uM” value falls from 15.6% to 6.86%.

First: O=C(O)C(=O)O.O=S(=O)(c1ccc(F)cc1)N1CCN(CC2CC3C=CC2C3)CC1 (stereo not shown)
Second: CCN1CCN(S(=O)(=O)c2ccc(Cl)c(C(=O)NC3CCCC3)c2)CC1
The “hERG current change (%, negative = inhibition) at 1uM” value of the first is higher: 18% for the first, 11.1% for the second.

First: C/C(=N/NS(=O)(=O)c1ccc(C(C)(C)C)cc1)c1ccc2c(c1)OCO2
Second: Cc1ccc(C(=O)NCc2ccc3c(c2)OCO3)o1
The “hERG current change (%, negative = inhibition) at 1uM” value of the first is lower: 17.5% for the first, 18.5% for the second.

First: CCOc1ccc(N2C(=O)C3Sc4[nH]c(=O)sc4C(/C=C/c4ccccc4)C3C2=O)cc1 (stereo not shown)
Second: COc1cc(/C=C2/SC(=S)N(Cc3ccccc3)C2=O)ccc1O
The “hERG current change (%, negative = inhibition) at 1uM” value of the first is higher: 7.15% for the first, 5.53% for the second.

Compared with CCCCN(C(=O)CCCc1nc2ccccc2c(=O)[nH]1)c1c(N)n(CC(C)C)c(=O)[nH]c1=O, CCCN(CCC)C(=O)c1oc2ccccc2c1NC(=O)Cc1cccc(OC)c1 is higher in “hERG current change (%, negative = inhibition) at 1uM” value: 5.91% for the first, 19.2% for the second.

First: CCOC(=O)N1CCN(C(=O)c2noc(C(C)C)c2[N+](=O)[O-])CC1
Second: Cc1ccc2oc(C(=O)N3CCN(CC(=O)NC(C)C)CC3)c(C)c2c1
The “hERG current change (%, negative = inhibition) at 1uM” value of the first is higher: 3.93% for the first, 1.34% for the second.

Going from Cc1cccc(NS(=O)(=O)c2cc3c(cc2C)N(C)CCO3)c1 to Cc1ccc2oc(=O)n(CCOc3ccccc3C)c2c1, the “hERG current change (%, negative = inhibition) at 1uM” value falls from 13.1% to 7.66%.

Going from O=C(Nc1nccs1)C(Cl)(Cl)Cl to CCCc1cc(C(=O)Nc2nnc(C)s2)cs1, the “hERG current change (%, negative = inhibition) at 1uM” value falls from 15.2% to 3.35%.

First: C=CCNC(=O)c1cn(CC)c2cc(N3CCN(C(=O)c4ccco4)CC3)c(F)cc2c1=O
Second: O=C(O)CSCC(=O)N1CCN(c2cc(C(F)(F)F)nc3ccccc23)CC1
The “hERG current change (%, negative = inhibition) at 1uM” value of the first is lower: -20.2% for the first, 16.7% for the second.

First: Cc1cccc(C)c1NC(=O)COC(=O)c1ccc2[nH]c3c(c2c1)CCCC3
Second: COc1cccc(-c2nc(CS(=O)(=O)CC(=O)Nc3cc(C)ccc3C)c(C)o2)c1
The “hERG current change (%, negative = inhibition) at 1uM” value of the first is lower: 1.86% for the first, 7.07% for the second.

Going from COc1ccc2nc(NC(=S)N(C)C)sc2c1 to COC(=O)C1=C(C)N(C)C(=S)NC1c1cc(OC)ccc1OC (stereo not shown), the “hERG current change (%, negative = inhibition) at 1uM” value falls from 19.9% to 2.93%.

Going from Cc1ccc(CN2CCN(Cc3ccccn3)CC2CCO)cc1 (stereo not shown) to OC(CSc1ccccc1Cl)CN1CCN(c2ccc(F)cc2)CC1 (stereo not shown), the “hERG current change (%, negative = inhibition) at 1uM” value falls from -5.1% to -11.2%.

Going from O=C(CCCn1cnc([N+](=O)[O-])n1)Nc1cccc(O)c1 to CCC(=O)NC(=S)Nc1ccc(NC(=O)COc2ccc([N+](=O)[O-])cc2)cc1, the “hERG current change (%, negative = inhibition) at 1uM” value rises from 9.8% to 13.9%.

Going from O=C1/C(=C/c2ccco2)Cc2ccccc21 to O=C(Nc1ccc2c(c1)OCCO2)C1CC1c1ccccc1 (stereo not shown), the “hERG current change (%, negative = inhibition) at 1uM” value rises from 7.18% to 12%.

First: COc1ccc(Cl)cc1C(=O)NNC(=O)c1csc(N2CCOCC2)n1
Second: O=C(N/C(=C\c1cccc(Br)c1)C(=O)N1CCOCC1)c1ccco1
The “hERG current change (%, negative = inhibition) at 1uM” value of the first is higher: 15.5% for the first, 6.44% for the second.

Compared with CS(=O)(=O)O.CSc1ccc2c(c1)C(N1CCN(C)CC1)Cc1ccccc1S2 (stereo not shown), CS(=O)(=O)N1CCN(c2ccccc2NC(=O)c2ccc(Br)o2)CC1 is higher in “hERG current change (%, negative = inhibition) at 1uM” value: -23.7% for the first, 0.558% for the second.

First: CC(C)(C)c1cnnn1-c1ccc(-c2csc(N)n2)cc1
Second: Cc1ccc(S(=O)(=O)N(C)CC(=O)Nc2cccc(C)n2)cc1
The “hERG current change (%, negative = inhibition) at 1uM” value of the first is lower: 11% for the first, 14.6% for the second.

Compared with CC(C)c1ccc(CN2CC(C(=O)Nc3ccccc3)CC2=O)cc1 (stereo not shown), O=C(NCCc1nnc2ccc(NCc3ccc(Cl)cc3)nn12)c1ccccc1 is lower in “hERG current change (%, negative = inhibition) at 1uM” value: 4.08% for the first, 2.58% for the second.

Going from CSCCC(NC(=O)C1CCC(C)CC1)C(=O)NCCN1CCC(C)CC1 (stereo not shown) to Cc1ccc(C(=O)O)cc1S(=O)(=O)N1CCC(C(=O)O)CC1, the “hERG current change (%, negative = inhibition) at 1uM” value falls from 5.51% to 0.0851%.

Compared with COc1ccc(C(C)=O)cc1COC(=O)CSC(C)C(=O)Nc1cc(C)on1 (stereo not shown), COc1cc(C(=O)NCCCc2ccccc2)cc(OC)c1OC is lower in “hERG current change (%, negative = inhibition) at 1uM” value: 11% for the first, 4.88% for the second.

Going from CCCCCCCCc1nnc(NC(=O)c2ccco2)s1 to CCn1c(SCC(=O)Nc2ccc(Cl)cc2)nnc1C1CC1, the “hERG current change (%, negative = inhibition) at 1uM” value falls from 14.6% to -11.5%.

First: COCCCNC(=O)c1c[nH]c2ccc(S(=O)(=O)N(C)c3ccccc3C)cc2c1=O
Second: COc1ccccc1CCNC(=O)C(=O)NCC1OCCN1S(=O)(=O)c1ccc(F)cc1 (stereo not shown)
The “hERG current change (%, negative = inhibition) at 1uM” value of the first is lower: -3.74% for the first, 3.37% for the second.

Going from Cc1ccc(C(O)c2ccc(-n3ccnc3)cc2)cc1 (stereo not shown) to O=C(NCc1ccncc1)c1cccc(S(=O)(=O)Nc2ccc(SC(F)F)cc2)c1, the “hERG current change (%, negative = inhibition) at 1uM” value rises from 12.2% to 14.6%.

Compared with O=C(Nc1ccc(C(F)(F)F)cc1[N+](=O)[O-])O[C@H]1[C@H](Cc2ccccc2)NS(=O)(=O)[C@H]2C[C@@H]3C=C[C@]12O3, O=C(O/N=C(/c1ccccc1)c1ccncc1)c1ccccc1[N+](=O)[O-] is higher in “hERG current change (%, negative = inhibition) at 1uM” value: 11.8% for the first, 14.6% for the second.

Compared with O=S(=O)(Nc1cccc2cn[nH]c12)c1ccc(F)cc1, O=C(N/N=C\c1cccnc1)c1ccc(Br)s1 is higher in “hERG current change (%, negative = inhibition) at 1uM” value: 11.6% for the first, 11.9% for the second.

First: CSCC(=O)N1CCCC(CO)(CCCc2ccccc2)C1 (stereo not shown)
Second: Cc1occc1C(=O)N1CCN(C(c2ccccc2)c2ccccc2)CC1
The “hERG current change (%, negative = inhibition) at 1uM” value of the first is higher: 8.09% for the first, 2.32% for the second.

First: CC(=O)Oc1c(C)c(OC(C)=O)c2c(c1C(C)=O)OC1CC(=O)C(C(C)=O)=C(O)C21C (stereo not shown)
Second: COC(=O)C1=C(C)N=C2SC(C#N)=C(N)N2C1c1ccc(OC)cc1 (stereo not shown)
The “hERG current change (%, negative = inhibition) at 1uM” value of the first is higher: 12% for the first, 1.33% for the second.

Compared with CC1CC=C2C(C#N)=C(N)C(C#N)(C#N)C(c3cccs3)C2C1 (stereo not shown), N#Cc1c2c(c(=S)n(-c3ccccc3)c1N)CCCC2 is higher in “hERG current change (%, negative = inhibition) at 1uM” value: 7.96% for the first, 13.2% for the second.

Compared with COCCOc1ccc(C(F)(F)F)cc1N, O=C(/C(Br)=C/Nc1cc(Cl)ccc1Cl)C(F)(F)F is lower in “hERG current change (%, negative = inhibition) at 1uM” value: 14.1% for the first, -12.2% for the second.

Going from C#CCSc1nnc(-c2ccc(O)cc2)o1 to N#CCSCC(=O)Nc1ccc(Cl)cc1, the “hERG current change (%, negative = inhibition) at 1uM” value falls from 10.4% to 6.31%.

First: Cc1cc(C)c(C)c(OCC(=O)O/N=C(\N)c2ccccn2)c1
Second: COc1ccc(NC2=NCCCS2)cc1OC
The “hERG current change (%, negative = inhibition) at 1uM” value of the first is lower: 4.17% for the first, 11.5% for the second.

First: Cc1nnc(SCc2nc3sc4c(c3c(=O)[nH]2)CCCC4)[nH]c1=O
Second: CC(C)n1c(=S)[nH]c2cc(Cl)ccc21
The “hERG current change (%, negative = inhibition) at 1uM” value of the first is lower: 1.76% for the first, 18.2% for the second.
